According to PubChem BioAssay AID686978 (National Center for Advancing Translational Sciences (NCATS), 2013):
Hit rate of the full screen: of about 420,000 compounds, about 64,000 (15%) were called active. Inconclusive results, whose numbers are uncertain, are shown with a selection of clear calls. Calls follow the shape of the dose curve; as a rule, active = well fitted inhibition curve with a large enough effect; inconclusive = small, poorly fitted or top-dose-only effect; inactive = flat fitted curve, though single readings scatter. Potencies of inconclusive entries are left out as doubtful fits.

experiment: qHTS for Inhibitors of human tyrosyl-DNA phosphodiesterase 1 (TDP1): qHTS in cells in absence of CPT; settings: DT40 Tdp1-/- hTDP1 cells, no CPT, ATP luminescence, 48 h; activity change, negative = growth inhibition: at 46.2 µM (top of the series) unless noted; also: nearly all actives have a fitted effect of over 55% in size
In short: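 Stably hTDP1-transfected Tdp1-null chicken DT40 cells were treated with library compounds minus camptothecin and grown for at least 48 hr at 37 °C, after which cellular ATP was quantified by luminescence.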
% is scaled to controls: 0 for no effect and ±100 for the full control effect; potency is read from the fitted curve at half-maximal effect; tags tell the direction and shape of the fitted curve.

SMILES | Potency | activity change, negative = growth inhibition
O=C(NCCN1CCOCC1)c1sc2ccccc2c1Cl | inconclusive [inhibitor, partial curve] | 
Cc1ccc(C(=O)Nc2ccc(C)c(S(=O)(=O)N(C)C)c2)s1 | inconclusive [inhibitor, single point] | 
COc1ccc2nc3oc(C(=O)N4CCN(c5cccc(Cl)c5)CC4)cc3cc2c1 | inconclusive [inhibitor, single point] | 
Cc1ccc(C2C(C(=O)c3sc(-c4ccccc4)nc3C)=C(O)C(=O)N2CCN(C)C)o1 (stereo unspecified) |  | inactive: -4.3%
O=C(Nc1c(F)c(F)c(F)c(F)c1F)c1ccc(Br)o1 |  | inconclusive: -30.1% [inhibitor]
Cc1ccc(S(=O)(=O)Nc2cc3c(cc2N2CCOCC2)n(C)c(=O)c(=O)n3C)cc1 |  | inactive: 2.7%
O=C(c1cc(C2CC2)nc2ccccc12)N1N=C(C(F)F)CC1(O)C(F)F (stereo unspecified) | inconclusive [inhibitor, single point] | 
Cc1ccc(NC(=O)CCn2c(=O)[nH]c3ccsc3c2=O)cc1F |  | inactive: -8.8%
Cc1ccc(Cc2nnc(SCC(=O)Nc3ccccc3C)[nH]c2=O)cc1 | inconclusive [inhibitor, single point] | 
O=c1sc2ccccc2c(N2CCCC2)c1[N+](=O)[O-] | inconclusive [inhibitor, partial curve] | 
COCCn1c(COc2ccc(OC)cc2)nc2ccccc21 |  | inconclusive: -31.7% [inhibitor]
CCOC(=O)c1ccc(NC(=O)NCc2c(C)nn(CC)c2C)cc1 | inconclusive [inhibitor, single point] | 
CC1=Nc2cc(C(=O)NC3CCCC3)ccc2Sc2ccc(C)cc21 | active: 0.92 µM | 
Cc1noc(C)c1-c1ccc(C(=O)NCCC(F)(F)F)c2occc12 | inconclusive [inhibitor, single point] | 
O=C(CN1CCN(c2ccccc2F)CC1)NCc1ccc(Cl)cc1 |  | inactive: -27.5%
COc1cc(CNC(=O)c2cc(-c3ccc(F)cc3OC)n[nH]2)cc(OC)c1 |  | inactive: -9.86%
CCOC(=O)N1CCN(C(=O)C[C@@H]2C[C@@]3(C(=O)OCC)CCC=C3N(CCC3=CCCCC3)C2=O)CC1 | inconclusive [inhibitor, single point] | 
O=C(c1cc2cc(F)ccc2[nH]1)N1CCCC(Nc2ccc(F)cc2)C1 (stereo unspecified) | inconclusive [inhibitor, single point] | 
Cn1c(SCC(=O)c2ccccc2)nnc1C1CC1 | inconclusive [inhibitor, single point] | 
CC1CC(=O)Nc2ccccc2N1S(=O)(=O)c1cccs1 (stereo unspecified) |  | inactive: -2.79%
CCC(=O)Oc1ccc(C/C(=N\O)c2ccc(O)cc2O)o1 | active: 18.4 µM | 
CC(Sc1ccc(Cl)cc1)C(=O)N(C)CC(=O)Nc1ccc(N2CCOCC2)cc1 (stereo unspecified) | inconclusive [inhibitor, single point] | 
CCn1c(=O)c(C(=O)Nc2ccccc2F)c(O)c2ccccc21 | inconclusive [inhibitor, single point] | 
COc1cccc(OCC(=O)Nc2cc(Cl)ccc2Oc2ccccc2)c1 |  | inactive: 8.66%
COC(=O)c1cc(C)nc2c1c(=O)nc(SCc1cccc(C)c1)n2C1CC1 | inconclusive [inhibitor, partial curve] | 
COc1ccc(OC)c(Cc2nnc(CCC(=O)N3CCN(C4CCCC4)CC3)o2)c1 |  | inactive: -12.8%

SMILES | Potency | activity change, negative = growth inhibition
c1ccc(N2CCN(c3cnc4ccccc4n3)CC2)cc1 | inconclusive [inhibitor, single point] | 
COc1cccc(C(=O)Nc2ccccc2C(=O)OCc2cc(=O)n3c(C)csc3n2)c1 |  | inactive: -15.5%
COc1ccc(NC(=O)NCCCN2CCCC2=O)c(OC)c1 |  | inactive: -3.63%
O=C(NC(=S)NCc1ccccc1)c1ccc(Br)cc1 | inconclusive [inhibitor, single point] | 
Cc1nn(-c2nc(-c3ccc(F)cc3)cc(C(F)(F)F)n2)c(C)c1Br | active: 18.4 µM | 
CCOc1ccc(NC(=O)N(c2ccccc2)c2ccccc2)cc1 | inconclusive [inhibitor, single point] | 
NNc1cccc(C=Cc2ccccc2)cc1=O | active: 1.64 µM | 
COc1ccc(OC)c(/C=N/NC(=O)c2cc3c(OC)cc(OC)cc3[nH]2)c1 | inconclusive [inhibitor, single point] | 
C/C(=N\NC(=O)c1ccc(F)cc1)c1cccc(NC(=O)c2ccco2)c1 |  | inactive: -17.7%
CCOC(=O)C1=NNC(C(=O)c2ccc(OC)cc2)C1c1ccccc1 (stereo unspecified) | inconclusive [inhibitor, single point] | 
CCOc1ccc(Oc2nc(NCC(C)C)nc(NC(C)(C)C)n2)nn1 | inconclusive [inhibitor, single point] | 
CCOC(=O)C1CCCN(S(=O)(=O)NC[C@H]2O[C@@H](n3cnc4c(N)ncnc43)[C@H](O)[C@@H]2O)C1 (stereo partly specified) |  | inactive: -4.38%
CCOc1cc(/C=N/n2cnnc2)ccc1OC(=O)c1cccc([N+](=O)[O-])c1 | inconclusive [inhibitor, partial curve] | 
COc1cccc(NC(=O)CCc2c(C)nc3c4cccnc4nn3c2C)c1 | active: 18.4 µM | 
O=C(Nc1ccc(N2CCC(c3ccccc3)C2)c(C(=O)O)c1)c1ccc(Cl)cc1 (stereo unspecified) | inconclusive [inhibitor, single point] | 
COC(=O)c1ccc(NCc2c(O)ccc(O)c2Br)cc1Cl | active: 4.61 µM | 
O=C(Nc1ccc(NC(=O)N2CCN(c3ccccc3O)CC2)cc1)N1CCN(c2ccccc2O)CC1 | active: 25.9 µM | 
Cc1c(C)n2c(SCC(=O)N3CCC(C)CC3)nnc2[nH]c1=O |  | inactive: -8.5%
Cc1ccc(-c2nnc(SCC(C)C)n2C)cc1 | active: 20.6 µM | 
Cc1occc1C(=O)N(C)CC1CCCN(CCc2ccc(Cl)cc2)C1 (stereo unspecified) | active: 20.6 µM | 
c1ccc2cc(Sc3ncnc4c3oc3ccccc34)ccc2c1 | inconclusive [inhibitor, single point] | 
CCOC(=O)c1ccccc1NC(=O)Nc1cc2c(cc1N1CCCCC1)n(C)c(=O)n2C |  | inactive: 0.34%
CN(Cc1ccccc1)C(=O)c1nc2ccccn2c1CN1CCC(N2CCOCC2)CC1 |  | inactive: -6.16%
CC(C)Cn1c(N)c(C(=O)CSc2ncccn2)c(=O)n(C)c1=O | active: 10.3 µM | 
CSc1ccc(CCNC(=O)CCCn2nc(C)c3sc4ccccc4c3c2=O)cc1 | inconclusive [inhibitor, partial curve] | 
CCCNC(=O)C(=O)Nc1cc2c3c(c1)CCC(=O)N3CCC2 |  | inactive: 4.33%

SMILES | Potency | activity change, negative = growth inhibition
Cc1nc(Nc2nc(CSc3nc4ccccc4[nH]3)cc(=O)[nH]2)nc2ccccc12 | active: 6.51 µM | 
Cc1cc(C)c(NC(=O)CN2CCN(S(=O)(=O)c3ccc4c(c3)OCCO4)CC2)c(C)c1 | inconclusive [inhibitor, single point] | 
CCC/C=C/c1ccc(CN2C(C)C(=O)N(Cc3cn(CC4CCCCC4)nn3)CCS2(=O)=O)cc1 (stereo unspecified) | active: 20.6 µM | 
COc1cccc(CNC(=O)CCC2CCCN(C(=O)c3cc(C)on3)C2)c1 (stereo unspecified) |  | inconclusive: -22.4% [inhibitor]
COc1ccccc1OCC(=O)N(Cc1ccc(Cl)cc1)CC1CCCO1 (stereo unspecified) | inconclusive [inhibitor, single point] | 
COc1ccccc1COC(=O)C(NC(=O)c1ccc(C)cc1)C(C)C (stereo unspecified) | inconclusive [inhibitor, single point] | 
O=C(Nc1cccc(F)c1)Nc1cccc(Cl)c1 | inconclusive [inhibitor, single point] | 
CCCCOc1ccc(NC(=O)C2OC3OC(C)(C)OC3C3OC(C)(C)OC23)cc1 (stereo unspecified) |  | inactive: 0.071%
O=C(NC(c1ccccc1)c1ccc2ccccc2n1)C1CCN(Cc2ccc(Cl)c(Cl)c2)CC1 (stereo unspecified) | active: 14.6 µM | 
O=C(CN1CCCC1)Nc1ccc([N+](=O)[O-])cc1 |  | inactive: -11.3%
CCOc1cc(Cl)c(NC(C)=O)cc1OCC |  | inactive: -0.117%
COC(=O)CS(=O)(=O)c1nc2ccccc2nc1N1CCCCC1 | active: 13 µM | 
S=C(NCc1cccc(Cl)c1)NC1CCCCC1 | inconclusive [inhibitor, single point] | 
CCCN=C1CC(C)(C)CC(=O)/C1=C(/O)CCC |  | inactive: -2.27%
COc1ccccc1N1CCN(C(=O)c2cc3c(-c4ccc(Cl)cc4)nn(C)c3s2)CC1 | inconclusive [inhibitor, single point] | 
CCCCn1c(CN2CCN(c3ccccc3)CC2)nc2c1c(=O)n(C)c(=O)n2C | active: 2.31 µM | 
CC(C)CCNC(=O)Nc1ccc2c(c1)N(C)C(=O)c1ccccc1S2 | active: 16.4 µM | 
COCCCNc1ncnc2onc(-c3ccc(F)cc3)c12 | inconclusive [inhibitor, single point] | 
CN1C(=O)[C@H](Cc2ccc([N+](=O)[O-])cc2)NC1=S | inconclusive [inhibitor, partial curve] | 
CCN(C(=O)c1c([N+](=O)[O-])cnn1C)c1ccccc1 |  | inactive: -15.7%
O=C(NCc1ccco1)C1CC(c2ccccc2C(F)(F)F)=NO1 (stereo unspecified) | inconclusive [inhibitor, single point] | 
O=C(c1cccnc1)N1CCCC(Nc2ccc(F)cc2)C1 (stereo unspecified) |  | inactive: 22.2%
Cc1n[nH]c(C)c1S(=O)(=O)N(CC(=O)NC(C)c1ccccc1)c1ccc(C(C)C)cc1 (stereo unspecified) | inconclusive [inhibitor, single point] | 
CCN(CC)CCNS(=O)(=O)c1ccc(C(=O)NN)cc1 | inconclusive [inhibitor, partial curve] | 
